Data as given in the antibiotic and cytotoxicity screens of Wong et al. (2023).
This is one part of the list.

Test system: S. aureus RN4220
Experiment: growth inhibition call (relative growth <= 0.2)
Details: 50 µM

Q: `C[C@H](CO)N1C[C@H](C)[C@H](CN(C)S(=O)(=O)c2cccc(F)c2)Oc2ncc(C#CCN(C)C)cc2C1=O` was tested. Which growth inhibition call did it give?
A: inactive

Q: Which growth inhibition call does the source give for `C[C@@H]1CN([C@@H](C)CO)S(=O)(=O)c2ccc(C#CC(C)(C)O)cc2O[C@@H]1CN(C)C(=O)C1CCCCC1` here?
A: inactive

Q: `CO[C@H]1CN(C)C(=O)c2cc(NS(=O)(=O)CC(F)(F)F)ccc2OC[C@H](C)N(Cc2cccnc2)C[C@H]1C` was tested. Which growth inhibition call did it give?
A: inactive

Q: Which growth inhibition call does the source give for `Cc1noc(C)c1NC(=O)Nc1ccc2c(c1)C(=O)N([C@@H](C)CO)C[C@@H](C)[C@@H](CN(C)C(=O)Nc1ccccc1)OCCCC[C@@H](C)O2` here?
A: inactive

Q: For `C[C@@H]1CN([C@H](C)CO)C(=O)c2cc(NS(=O)(=O)c3ccc(Cl)cc3)ccc2O[C@@H](C)CCCCO[C@H]1CN(C)Cc1ccccc1`, which growth inhibition call is on record?
A: inactive

Q: Which growth inhibition call does the source give for `CCCNC(=O)N1[C@@H]2Cn3c(cccc3=O)[C@H]1[C@@H](C(=O)NCC(F)(F)F)[C@@H]2CO` here?
A: inactive

Q: `NC(=O)CCC(N)C(=O)O` (stereo not given) was tested. Which growth inhibition call did it give?
A: inactive

Q: For `CS(=O)(=O)N1C[C@H]2C[C@@H](F)[C@@H](O)[C@@H]2C1`, which growth inhibition call is on record?
A: inactive

Q: For `C[C@@H]1CN([C@@H](C)CO)C(=O)c2cc(NC(=O)c3ccccc3)ccc2O[C@@H](C)CCCCO[C@@H]1CN(C)C(=O)Nc1ccc(C(F)(F)F)cc1`, which growth inhibition call is on record?
A: inactive

Q: How did the growth inhibition call turn out when `C[C@@H]1CN([C@@H](C)CO)C(=O)c2cccc(NS(=O)(=O)c3ccc(Cl)cc3)c2O[C@@H]1CN(C)C(=O)Nc1cccc2ccccc12` was run?
A: inactive

Q: `C[C@@H]1CCCCO[C@H](CN(C)S(=O)(=O)c2ccc(F)cc2)[C@H](C)CN([C@@H](C)CO)C(=O)c2cc(NS(=O)(=O)c3ccc(Cl)cc3)ccc2O1` was tested. Which growth inhibition call did it give?
A: inactive

Q: With `C[C@H](CO)N1C[C@H](C)[C@@H](CN(C)Cc2ccccc2)Oc2c(NC(=O)CCCCCC(=O)Nc3ccccc3N)cccc2C1=O` as the compound, how does the growth inhibition call read?
A: inactive

Q: With `C=CCNC(N)=S` as the compound, how does the growth inhibition call read?
A: inactive

Q: `C[C@H](CO)N1C[C@H](C)[C@H](CN(C)C(=O)Cc2ccncc2)Oc2ncc(C#CC3(O)CCCC3)cc2C1=O` was tested. Which growth inhibition call did it give?
A: inactive

Q: `COc1ccc(S(=O)(=O)N(C)C[C@@H]2Oc3c(NC(=O)C4CCOCC4)cccc3C(=O)N([C@H](C)CO)C[C@@H]2C)cc1` was tested. Which growth inhibition call did it give?
A: inactive

Q: For `C[N+]1(C)CCC(OC(=O)C(O)(c2ccccc2)C2CCCC2)C1.[Br-]` (stereo not given), which growth inhibition call is on record?
A: inactive

Q: With `COc1ccc(NC(=O)N(C)C[C@H]2OCc3ccccc3-c3c(n(C)c4ccccc34)C(=O)N([C@@H](C)CO)C[C@H]2C)cc1` as the compound, how does the growth inhibition call read?
A: inactive

Q: With `C[C@@H]1CCCCO[C@H](CN(C)C(=O)Nc2ccc(F)cc2)[C@H](C)CN([C@@H](C)CO)C(=O)c2cc(NS(=O)(=O)c3ccc(Cl)cc3)ccc2O1` as the compound, how does the growth inhibition call read?
A: inactive

Q: With `COCC(=O)Nc1ccc2c(c1)C(=O)N(C)[C@H]1CC[C@H](CC(=O)NC3Cc4ccccc4C3)O[C@H]1CO2` as the compound, how does the growth inhibition call read?
A: inactive

Q: For `CN1CCN(C(=O)C[C@H]2CC[C@H]3[C@H](COc4ccc(NC(=O)c5cscn5)cc4C(=O)N3C)O2)CC1`, which growth inhibition call is on record?
A: inactive

Q: Which growth inhibition call does the source give for `CO[C@@H]1CN(C)C(=O)c2cc(NC(=O)c3ccc(F)cc3)ccc2OC[C@H](C)N(C(=O)CN(C)C)C[C@@H]1C` here?
A: inactive

Q: `C[C@H]1CN([C@@H](C)CO)C(=O)c2cc(NC(=O)Cc3cn(C)c4ccccc34)ccc2O[C@@H]1CN(C)S(=O)(=O)c1cn(C)cn1` was tested. Which growth inhibition call did it give?
A: inactive

Q: With `COc1ccc(NC(=O)N(C)C[C@@H]2Oc3ccc(NS(=O)(=O)c4c(C)noc4C)cc3C(=O)N([C@@H](C)CO)C[C@@H]2C)cc1` as the compound, how does the growth inhibition call read?
A: inactive

Q: With `C[C@@H]1CN([C@H](C)CO)C(=O)Cc2cc(NS(=O)(=O)c3ccccc3)ccc2O[C@@H]1CN(C)Cc1ccncc1` as the compound, how does the growth inhibition call read?
A: inactive

Q: Which growth inhibition call does the source give for `CCCCCCc1ccc(O)cc1O` here?
A: active

Q: Which growth inhibition call does the source give for `C[C@H](CO)N1C[C@H](C)[C@@H](CN(C)C(=O)Cc2cccnc2)Oc2cc(C#Cc3ccccc3F)ccc2S1(=O)=O` here?
A: inactive

Q: For `C[C@@H]1CN([C@H](C)CO)C(=O)c2cc(NC(=O)c3ccccc3)ccc2O[C@@H](C)CCCCO[C@H]1CN(C)Cc1ccc(Cl)c(Cl)c1`, which growth inhibition call is on record?
A: inactive

Q: For `C[C@H]1CN([C@@H](C)CO)C(=O)c2cccc(NC(=O)C3CCOCC3)c2O[C@H]1CN(C)C(=O)Nc1ccc2c(c1)OCO2`, which growth inhibition call is on record?
A: inactive

Q: Which growth inhibition call does the source give for `CC(=O)Oc1cncc(C(=O)O)c1` here?
A: inactive

Q: How did the growth inhibition call turn out when `O=c1c(O)c(-c2ccc(O)c(O)c2)oc2c(OC3OC(CO)C(O)C(O)C3O)c(O)cc(O)c12` (stereo not given) was run?
A: inactive

Q: With `C[C@@H]1CN([C@@H](C)CO)C(=O)Cc2cc(NC(=O)CCCCCC(=O)Nc3ccccc3N)ccc2O[C@@H]1CN(C)Cc1ccc(-c2ccccc2)cc1` as the compound, how does the growth inhibition call read?
A: inactive

Q: Which growth inhibition call does the source give for `C[C@H](CO)N1C[C@H](C)[C@H](CN(C)C(=O)C2CCOCC2)Oc2ncc(/C=C/c3ccccc3)cc2C1=O` here?
A: inactive

Q: With `C[C@@H]1CCCCO[C@@H](CN(C)CC2CCCCC2)[C@H](C)CN([C@H](C)CO)C(=O)c2cc(NC(=O)Nc3cccc4ccccc34)ccc2O1` as the compound, how does the growth inhibition call read?
A: inactive

Q: `COc1ccc(CN(C)C[C@@H]2OCCCC[C@H](C)Oc3ccc(NC(=O)c4ccncc4)cc3C(=O)N([C@@H](C)CO)C[C@H]2C)cc1` was tested. Which growth inhibition call did it give?
A: inactive

Q: How did the growth inhibition call turn out when `Cc1cc(O)c2c(c1)C(=O)c1c(c(O)cc(O)c1-c1c(O)cc(O)c3c1C(=O)c1cc(C)cc(O)c1C3=O)C2=O` was run?
A: inactive

Q: How did the growth inhibition call turn out when `C[C@@H]1CN([C@@H](C)CO)C(=O)c2cc(NC(=O)C3CCCCC3)ccc2O[C@H]1CN(C)S(=O)(=O)c1cn(C)cn1` was run?
A: inactive

Q: How did the growth inhibition call turn out when `Cc1ccc(S(=O)(=O)N(C)C[C@H]2Oc3ccc(NS(C)(=O)=O)cc3C(=O)N([C@H](C)CO)C[C@H]2C)cc1` was run?
A: inactive

Q: How did the growth inhibition call turn out when `CCc1cnc2c(c1OC)c(=O)n(CCN1CCOCC1)c(=O)n2C` was run?
A: inactive

Q: How did the growth inhibition call turn out when `C[C@H](NC(=O)C[C@H]1C[C@H]2c3cc(NC(=O)Nc4ccc(C(F)(F)F)cc4)ccc3O[C@H]2[C@@H](CO)O1)c1ccccc1` was run?
A: inactive

Q: For `O=C(NO)c1cccc(C(=O)N/N=C/[C@H](O)[C@@H](O)[C@H](O)CO)c1`, which growth inhibition call is on record?
A: inactive
